Drawing on the antibiotic and cytotoxicity screens of Wong et al. (2023), this text covers cytotoxicity call and growth inhibition call for 28 compounds.

Assay [1] deals with HSkMC (human skeletal muscle cells). Description: cytotoxicity call (relative viability < 0.9). Particulars: 10 µM.
Assay [2] has as its system HepG2. Description: cytotoxicity call (relative viability < 0.9). Particulars: 10 µM.
In assay [3] the test system is S. aureus RN4220. Description: growth inhibition call (relative growth <= 0.2). To be noted: 50 µM.

Some of the results follow.

In the case of `C[C@@H]1CN([C@@H](C)CO)C(=O)c2cc(NS(C)(=O)=O)ccc2O[C@@H](C)CCCCO[C@H]1CN(C)C(=O)CCCN(C)C`, the cytotoxicity call in assay [1] and in assay [2] was “inactive” throughout. Also, the growth inhibition call in assay [3] was “inactive”.

For the compound `C[C@@H]1CN([C@@H](C)CO)C(=O)c2cc(C#Cc3cccnc3)cnc2O[C@H]1CN(C)S(C)(=O)=O`, the cytotoxicity call in assay [1] and in assay [2] was “inactive” throughout. Also, in assay [3], the growth inhibition call is “inactive”.

Take `CC1=CC(=O)C(C(C)C)=CC1=O`: the cytotoxicity call in assay [1] and in assay [2] was “inactive” each time. Also, the growth inhibition call in assay [3] is “inactive”.

Take `C[C@@H]1CN([C@H](C)CO)C(=O)c2cc(NC(=O)CCC(F)(F)F)ccc2O[C@H]1CN(C)S(C)(=O)=O`: the cytotoxicity call in assay [1] and in assay [2] was “inactive” each time. Also, the growth inhibition call in assay [3] is “inactive”.

As for `C[C@@H]1CCCCO[C@H](CN(C)C(=O)CCCN(C)C)[C@H](C)CN([C@@H](C)CO)C(=O)c2cc(NC(=O)Nc3ccc(C(F)(F)F)cc3)ccc2O1`, the cytotoxicity call in assay [1] and in assay [2] was “inactive” each time. Also, the growth inhibition call in assay [3] is “inactive”.

As to `Cc1ccc(S(=O)(=O)Nc2ccc3c(c2)C(=O)N([C@H](C)CO)C[C@@H](C)[C@H](CN(C)S(=O)(=O)c2cccs2)O3)cc1`, the cytotoxicity call in assay [1] and in assay [2] was “inactive” each time. Further, in assay [3], the growth inhibition call is “inactive”.

On to `CCCN(C)C[C@H]1OCCCC[C@H](C)Oc2ccc(NS(=O)(=O)c3ccc(Cl)cc3)cc2C(=O)N([C@H](C)CO)C[C@H]1C`, for which the cytotoxicity call in assay [1] and in assay [2] was “inactive” throughout. Besides, the growth inhibition call in assay [3] is “inactive”.

For `CCCN(C)C[C@@H]1OCCCC[C@H](C)Oc2ccc(NC(=O)Nc3cccc4ccccc34)cc2C(=O)N([C@H](C)CO)C[C@@H]1C`, the cytotoxicity call in assay [1] and in assay [2] was “inactive” in each case. Besides, the growth inhibition call in assay [3] was “inactive”.

For the compound `Nc1nnnn1-c1ccccc1`, the cytotoxicity call in assay [1] and in assay [2] was “inactive” each time. The growth inhibition call in assay [3] was “active”.

For the compound `Cc1ccc(S[C@]2(C(=O)NCC(F)(F)F)CC(=O)N(C3Cc4ccccc4C3)[C@@H]2c2ccc(CO)cc2I)cc1`, the cytotoxicity call in assay [1] and in assay [2] was “inactive” in each case. Moreover, the growth inhibition call in assay [3] was “inactive”.

For `CN1CCN(C(=O)C[C@H]2CC[C@@H]3[C@H](COC[C@H](O)CN3C(=O)Nc3cc(Cl)cc(Cl)c3)O2)CC1`, the cytotoxicity call in assay [1] and in assay [2] was “inactive” in each case. For the same compound, the growth inhibition call in assay [3] is “inactive”.

Take `CCCCCCCCCCCCN1CCCCCC1=O`: the cytotoxicity call in assay [1] and in assay [2] was “inactive” each time. The growth inhibition call in assay [3] was “inactive”.

Consider `CO[C@@H]1CN(C)C(=O)c2cc(NS(C)(=O)=O)ccc2OC[C@@H](C)N(C(=O)C2CCOCC2)C[C@@H]1C`, for which the cytotoxicity call in assay [1] and in assay [2] was “inactive” in each case. For the same compound, the growth inhibition call in assay [3] was “inactive”.

For `CC(C)NC(=O)[C@@]1(C)c2ccccc2C(=O)N(Cc2ccc(OC(F)(F)F)cc2)[C@H]1c1ccc(CO)cc1`, the cytotoxicity call in assay [1] and in assay [2] was “inactive” each time. The growth inhibition call in assay [3] was “inactive”.

`CN1CCN(Cc2ccc(NC(=O)Nc3ccc(Oc4cc(NC(=O)C5CC5)ncn4)cc3)cc2C(F)(F)F)CC1`: the cytotoxicity call in assay [1] and in assay [2] was “active” throughout. The growth inhibition call in assay [3] is “inactive”.

Consider `Cc1cccc(NC(=O)Nc2ccc3c(c2)C(=O)N(C)[C@@H]2CC[C@H](CC(=O)NCc4ccccc4Cl)O[C@@H]2CO3)c1`, for which the cytotoxicity call in assay [1] and in assay [2] was “inactive” in each case. Besides, the growth inhibition call in assay [3] is “inactive”.

In the case of `CC(=O)NCCOc1ccc(C(=O)O)cc1`, the cytotoxicity call in assay [1] and in assay [2] was “inactive” throughout. In assay [3], the growth inhibition call was “inactive”.

In the case of `C[C@H](CO)N1C[C@H](C)[C@H](CN(C)Cc2cccc3c2OCCCO3)OCc2ccccc2-c2c(n(C)c3ccccc23)C1=O`, the cytotoxicity call in assay [1] and in assay [2] was “inactive” in each case. Also, the growth inhibition call in assay [3] was “inactive”.

In the case of `COc1ccc(S(=O)(=O)Nc2ccc3c(c2)CC(=O)N([C@H](C)CO)C[C@H](C)[C@@H](CN(C)Cc2ccc(Oc4ccccc4)cc2)O3)cc1`, the cytotoxicity call in assay [1] and in assay [2] was “inactive” in each case. Besides, the growth inhibition call in assay [3] was “inactive”.

Turning to `C[C@@H]1CN([C@H](C)CO)C(=O)c2cc(NS(=O)(=O)c3cccs3)ccc2O[C@@H](C)CCCCO[C@@H]1CN(C)Cc1ccc2c(c1)OCO2`, the cytotoxicity call in assay [1] and in assay [2] was “inactive” in each case. In addition, in assay [3], the growth inhibition call was “inactive”.

Regarding `Cc1ccc2[nH]c3c(c2c1)CCC[C@H]3Nc1ccc(Cl)cc1`, the cytotoxicity call in assay [1] and in assay [2] was “inactive” throughout. In assay [3], the growth inhibition call was “inactive”.

For the compound `C[C@H]1CN([C@@H](C)CO)C(=O)c2cccc(NC(=O)Nc3ccc(F)cc3)c2O[C@H]1CN(C)C(=O)Nc1cccc2ccccc12`, the cytotoxicity call in assay [1] and in assay [2] was “inactive” each time. The growth inhibition call in assay [3] is “inactive”.

In the case of `COc1ccccc1-c1ccc2c(c1)O[C@@H](CN(C)C(=O)c1cccnc1)[C@H](C)CN([C@@H](C)CO)S2(=O)=O`, the cytotoxicity call in assay [1] and in assay [2] was “inactive” in each case. Further, the growth inhibition call in assay [3] is “inactive”.

Consider `C[C@@H]1CCCCO[C@@H](CN(C)Cc2ccccc2)[C@H](C)CN([C@H](C)CO)C(=O)c2cc(NC(=O)NC3CCCCC3)ccc2O1`, for which the cytotoxicity call in assay [1] and in assay [2] was “inactive” in each case. Besides, the growth inhibition call in assay [3] is “inactive”.

For `CCCn1ncnc1[C@@H](C)N`, the cytotoxicity call in assay [1] and in assay [2] was “inactive” throughout. Moreover, in assay [3], the growth inhibition call is “inactive”.

For the compound `CC(C)NC(=O)Nc1ccc2c(c1)CC(=O)N([C@H](C)CO)C[C@H](C)[C@H](CN(C)S(=O)(=O)c1ccc(Cl)cc1)O2`, the cytotoxicity call in assay [1] and in assay [2] was “inactive” each time. In addition, the growth inhibition call in assay [3] was “inactive”.

Take `COc1ccc2c3c([nH]c2c1)[C@H](CO)N(C[C@]13CCN(CC1)CC1CCCCC1)C(=O)Nc1cccc(c1)F`: the cytotoxicity call in assay [1] and in assay [2] was “active” each time. Also, the growth inhibition call in assay [3] was “inactive”.

Consider `C[C@H]1CN([C@@H](C)CO)S(=O)(=O)c2ccc(-c3ccncc3)cc2O[C@H]1CN(C)C(=O)c1cccc(F)c1`, for which the cytotoxicity call in assay [1] and in assay [2] was “inactive” throughout. In assay [3], the growth inhibition call was “inactive”.
